In all, about 310,000 compounds went through this assay and about 2,200 (0.71%) showed an effect of 50% or more. The effect is printed as a negative number. This is one part of the list.
Biological target: human ether-à-go-go-related gene (hERG) potassium channel (human, UniProt Q12809)
Test: primary screen, population patch clamp on CHO cells stably expressing hERG

Sequence of human ether-à-go-go-related gene (hERG) potassium channel (Q12809 whole entry, looked up): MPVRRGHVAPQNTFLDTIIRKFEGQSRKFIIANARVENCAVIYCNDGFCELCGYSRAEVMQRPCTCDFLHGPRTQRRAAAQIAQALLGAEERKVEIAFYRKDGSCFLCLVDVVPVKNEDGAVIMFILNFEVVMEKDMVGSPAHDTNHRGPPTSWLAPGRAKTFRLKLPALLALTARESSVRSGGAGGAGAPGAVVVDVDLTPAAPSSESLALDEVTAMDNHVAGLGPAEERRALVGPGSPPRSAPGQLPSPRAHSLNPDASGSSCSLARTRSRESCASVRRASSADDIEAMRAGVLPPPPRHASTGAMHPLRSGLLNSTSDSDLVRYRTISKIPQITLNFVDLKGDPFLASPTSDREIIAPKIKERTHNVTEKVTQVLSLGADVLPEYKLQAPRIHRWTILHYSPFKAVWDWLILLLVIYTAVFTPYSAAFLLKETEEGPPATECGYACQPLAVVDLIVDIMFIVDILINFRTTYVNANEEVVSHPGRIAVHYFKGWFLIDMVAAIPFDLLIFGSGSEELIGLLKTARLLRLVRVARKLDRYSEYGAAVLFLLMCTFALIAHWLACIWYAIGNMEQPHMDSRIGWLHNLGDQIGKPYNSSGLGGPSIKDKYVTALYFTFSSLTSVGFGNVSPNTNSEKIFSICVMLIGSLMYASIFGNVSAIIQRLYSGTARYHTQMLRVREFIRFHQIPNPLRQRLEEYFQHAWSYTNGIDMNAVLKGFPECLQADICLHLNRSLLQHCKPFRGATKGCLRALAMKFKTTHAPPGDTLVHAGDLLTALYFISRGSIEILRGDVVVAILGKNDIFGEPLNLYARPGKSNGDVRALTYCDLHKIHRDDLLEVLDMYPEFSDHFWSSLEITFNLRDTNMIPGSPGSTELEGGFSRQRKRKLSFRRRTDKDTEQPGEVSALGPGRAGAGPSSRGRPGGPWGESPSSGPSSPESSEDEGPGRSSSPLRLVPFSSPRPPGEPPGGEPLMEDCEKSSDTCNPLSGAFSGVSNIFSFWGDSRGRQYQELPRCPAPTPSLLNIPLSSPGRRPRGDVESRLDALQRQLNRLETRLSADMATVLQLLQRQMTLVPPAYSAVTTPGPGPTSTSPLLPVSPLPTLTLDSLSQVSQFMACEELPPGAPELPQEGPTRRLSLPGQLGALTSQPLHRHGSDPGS

SMILES	hERG current change (%, negative = inhibition) at 1uM
CC(=O)N1CCc2cc(S(=O)(=O)NCCCN3CCC(C)CC3)ccc21	26.9%
COc1ccc(C(=O)NCC(=O)N2CCN(C(=O)c3ccco3)CC2)cc1	-1.13%
CC(=O)N1c2ccc(S(=O)(=O)NCCC(=O)Nc3ccc(F)cc3)cc2CC1C (stereo not drawn)	5.82%
O=C(O)c1cccc(OCc2ccccc2Cl)c1	0.845%
COC(=O)C1=C(CSCc2ccco2)NC(=O)NC1c1cc(C)ccc1C (stereo not drawn)	-8.26%
O=C(NCc1ccc(F)cc1)c1cccnc1C(=O)O	15.7%
Cc1sc2ncnc(N(C)C3CCCCC3)c2c1C	13.8%
CCOC(=O)Nc1cc(C(=O)OCC)c(C)nc1C	1.36%
CCN(CC(=O)NCc1cccs1)S(=O)(=O)c1ccc(F)cc1	-24.1%
Cc1onc(-c2c(Cl)cccc2Cl)c1C(=O)N1CCN(c2ccccc2F)CC1	15.9%
Cc1cc(C)nc(NS(=O)(=O)c2ccc(NS(=O)(=O)c3ccsc3)cc2)n1	6.01%
CC(C)CN1CCC(=O)N([C@H](CSc2ccc(Br)cc2)Cc2ccccc2)CC1	-0.18%
CCOC(=O)C(NC(=O)CCl)(Nc1ccc(C(O)(C(=O)OCC)C(F)(F)F)cc1)C(F)(F)F (stereo not drawn)	10.2%
Cc1oc(-c2ccccc2Cl)nc1CSCC(=O)N1CCCC1	0.617%
COc1ccc(-c2nn(-c3ccccc3F)cc2CNCCn2nc(C)cc2C)cc1	4.53%
Cc1cc(O)c(C=O)c2c1C(=O)Oc1c(CO)c(O)c3c(c1O2)C(O)OC3=O (stereo not drawn)	-1.89%
O=C(Nc1ccc(Oc2c(F)c(F)c(F)c(F)c2F)cc1)OC1CCN2Cc3ccccc3N=C12 (stereo not drawn)	2.16%
CC(=O)Nc1ccc(NC(=O)CCn2c(=S)oc3ccccc32)cc1	-0.841%
CCN1C(=O)/C(=C/c2nc3ccccc3c(=O)n2-c2ccc(C)cc2)c2ccccc21	15.1%
COC(=O)C1=C(c2ccc(F)cc2OCc2ccccc2)C[C@@H]2CC[C@H]1N2C(=O)NCCCc1ccccc1	13.6%
CCOc1ccc(N2C(=O)CC(N3CCC(NC(=O)Nc4ccccc4)CC3)C2=O)cc1 (stereo not drawn)	13.5%
COCCn1ccc2c(OCC(=O)NCc3ccc(C)cc3)cccc2c1=O	2.28%
O=[N+]([O-])c1cncc([N+](=O)[O-])c1Nc1ccccc1Cl	9.74%
CCOc1cc(CNn2c(C)nnc2SCC(=O)NC(C)(C)C)ccc1OCC(=O)NC(C)(C)C	10.7%
O=c1cc(CO)oc(CN2CCN(c3ccccc3)CC2)c1O	17.3%
COC(=O)c1ccc(N=Nc2c(C)[nH]n(-c3ccccc3)c2=O)cc1	15.4%
Cc1ccc(NC(=O)c2cc(S(=O)(=O)N3CCCCC3)c[nH]2)cc1F	8.59%

SMILES	hERG current change (%, negative = inhibition) at 1uM
COc1ccc(C)cc1NC(=O)CNC(C)C(=O)Nc1cc(Cl)ccc1Cl (stereo not drawn)	6.18%
CC1COc2ccccc2N1S(=O)(=O)c1cc(Cl)ccc1Cl (stereo not drawn)	15.7%
CCN1CCN(c2cc(C(C)C)nc3c(-c4ccccc4)c(C)nn23)CC1	10.7%
COC(=O)c1sccc1NC(=O)c1ccc(OC)cc1OC	9.09%
Cn1ccnc1SCC(=O)N1CCc2ccccc21	-0.415%
CC(C)(Oc1ccc(CCNC(=O)c2ccc(Cl)cc2)cc1)C(=O)O	3.22%
CCOC(=O)N1CCN(C(=O)c2ccc(NS(=O)(=O)c3ccc(C)cc3)cc2)CC1	19.5%
COC(=O)C1=C(c2cccc(OCc3ccccc3)c2)C[C@@H]2CC[C@H]1N2C(=O)NCc1ccc(F)cc1	17.7%
O=C(C1CCCCC1)N1CCN(S(=O)(=O)c2ccc(Cl)cc2)CC1	6.24%
COc1ccc(C)cc1NC(=O)CSc1ccc(-c2cccnc2)nn1	-0.164%
O=C1CC(c2ccccc2)Cc2nc(N3CCc4ccccc43)ncc21 (stereo not drawn)	15.5%
N#CC1=C(N)SC(N)=C(C#N)C1c1ccc([N+](=O)[O-])cc1	-3.05%
CC(C)COC(=O)C(C)Nc1n[nH]c(=S)[nH]c1=O (stereo not drawn)	13.8%
CC(C)(Oc1ccc(Cl)cc1)C(=O)Nc1ccc2oc(-c3ccncc3)nc2c1	5.28%
COc1ccccc1NC(=O)CSc1nnc(CC(=O)Nc2ccccc2F)n1C	13.3%
CCOc1ccccc1C1CC(=O)Nc2c1c(=O)n(C)c(=O)n2C (stereo not drawn)	11.4%
CCn1cc(CN2CCC(n3nccc3NC(=O)CCCc3ccccc3)CC2)c(C)n1	11.3%
Cc1ccc2nc(-c3sc4nc(C)cc(C)c4c3N)[nH]c2c1	10.3%
O=C(O)C(=O)O.O=C(c1ccco1)N1CCN(Cc2cccc3ccccc23)CC1	4.89%
Cc1ccc(OCCOC(=O)c2c(-c3ccccc3)noc2C)cc1	19.9%
COc1ccc(C2=C(Nc3ccc(C)cc3)c3ccccc3C2=O)cc1	2.96%
Cc1ccc(S(=O)(=O)Nc2nc3ccccc3nc2NCC2CCCO2)cc1C (stereo not drawn)	-23.8%
O=C(NNC(=O)c1ccc(-n2cncn2)c([N+](=O)[O-])c1)c1cccc(Cl)c1	1.02%
COc1ccc(NC(=O)CC(Cc2ccccc2)C(=O)O)cc1 (stereo not drawn)	11.5%
C[C@H](NC(=O)N1CCn2c1nc1ccccc12)C(=O)NCc1ccc(F)cc1	-5.77%
CCOC(=O)c1c(CN2CCCCC2)n(C)c2cc(Br)c(O)c(CN(C)C)c12	9.82%
CCC(CO)NCc1ccc(-c2ccccc2)cc1.Cl (stereo not drawn)	3.58%

Source: PMC4336329 (PLoS ONE, 2015)
